The other results are listed elsewhere or left out. The full chains were built here from the parent and the listed change. Inactive controls read about 0.05.
B1: TEV protease; numbered along this chain (parent)
chain: MGESLFKGPRDYNPISSSICHLTNESDGHTTSLYGIGFGPFIITNKHLFRRNNGTLVVQSLHGVFKVKDTTTLQQHLVDGRDMIIIRMPKDFPPFPQKLKFREPQREERICLVTTNFQTKSMSSMVSDTSCTFPSGDGIFWKHWIQTKDGQCGSPLVSTRDGFIVGIHSASNFTNTNNYFTSVPKNFMELLTNQEAQQWVSGWRLNADSVLWGGHKVFMVKPEEPFQPVKEATQL

Variants of: B1
Test: raw area under fraction-flipped curve 0-4 h after induction (AUC4h, not background-subtracted), DNA-recorder readout of cleavage of the substrate (dimensionless); higher = more cleavage of the substrate by the protease variant
Conditions: temperature: 34 °C; time window: 0-4 h after rhamnose induction
Experimental: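 In vivo DNA recorder in E. coli TOP10(DE3) ΔrhaA at 34 °C. Each TEVp single-site mutant (parent TEVp 0) is paired with a single-site variant of the 7-mer TEVs (canonical ENLYFQ|S). The substrate sits between flexible linkers in a Bxb1-sfGFP-TEVs-SsrA fusion, so cleavage stabilises Bxb1 and speeds flipping of a recombination array, read by NGS. The value is the raw area under the fraction-flipped curve over 0-4 h after rhamnose induction (AUC4h), with ≥20 reads per time point. It is not background-subtracted; inactive controls average about 0.047.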
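Also: Bxb1 expression induced with 0.2% (w/v) L-rhamnose at OD600 near 0.5, cultures sampled hourly, flipped fraction per protease–substrate barcode pair counted by paired-end Illumina sequencing.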

Variant	area with substrate ENLAFQS	area with substrate ENLCFQS	area with substrate ENLDFQS	area with substrate ENLFFQS	area with substrate ENLGFQS	area with substrate ENLHFQS	area with substrate ENLKFQS	area with substrate ENLLFQS	area with substrate ENLNFQS	area with substrate ENLPFQS	area with substrate ENLQFQS	area with substrate ENLSFQS	area with substrate ENLVFQS	area with substrate ENLWFQS	area with substrate ENLIFQS	area with substrate ENLMFQS	area with substrate ENLTFQS	area with substrate ENLEFQS	area with substrate ENLRFQS
Q59W	0.0614	0.0724	0.0637	0.0778	0.0802	0.0855	0.0852	0.0729	0.0647	0.0604	0.0625	0.0739	0.0722	0.0519	–	–	–	–	–
F117I	0.0698	–	0.0564	0.0806	–	–	0.0709	–	0.07	0.0701	0.0484	0.0756	0.0841	0.066	0.071	0.0642	–	–	–
E107T	0.0683	–	–	0.0809	–	0.0798	–	–	0.052	0.0943	–	–	–	0.0614	–	–	0.0813	–	–
E107Q	0.0814	0.0801	0.0835	0.0833	–	0.0696	0.0657	0.0738	0.0575	0.0393	0.0539	0.0657	–	0.0724	–	–	0.0546	–	–
E107V	0.0649	0.0706	0.0496	0.0861	–	0.0743	0.0856	–	0.0844	0.0656	0.0582	0.0718	–	–	0.0695	0.0635	–	0.0615	0.0834
Q118E	0.0688	0.0813	0.0666	0.0574	–	–	0.0755	–	–	0.0718	–	0.0767	–	–	–	–	–	0.0536	0.0834
I110W	0.0546	0.0676	0.0638	0.0536	–	–	–	–	–	–	–	0.0602	–	0.0419	–	–	–	–	–
V57H	0.0451	–	0.07	0.0704	–	0.0536	0.0457	0.0802	0.0576	0.0608	–	0.0581	0.101	–	0.0421	–	0.0695	0.071	0.0839
D82T	0.0552	–	0.0646	0.0432	–	0.0542	0.0543	0.0638	0.0467	0.0713	–	0.0833	0.045	0.0557	0.0433	–	0.0434	0.0628	0.0503
E108K	0.0619	0.0681	0.0765	–	0.0641	0.0638	–	0.0654	–	0.0509	0.0279	–	–	0.058	–	–	0.0613	–	0.0631
E108R	0.0419	–	0.0553	–	–	0.06	0.0469	0.0598	0.0545	–	0.0544	–	–	0.0696	–	–	–	–	0.0649
V126K	0.0638	0.0535	–	0.0952	0.0653	0.102	0.0877	0.0716	0.0554	0.0538	–	0.0654	–	0.0542	0.0789	–	0.092	0.0495	–
I84L	0.0691	0.0502	0.0619	0.116	–	0.0594	–	–	0.0619	–	–	0.0619	–	0.0661	–	–	–	0.0383	0.0777
I84Y	0.0331	0.0554	0.0694	0.0671	–	0.0504	0.0587	–	0.0609	0.0527	0.0532	–	–	0.0633	–	–	–	0.0566	0.0628
I84K	0.0595	–	0.0652	–	–	0.0613	0.0649	–	–	0.0599	–	–	–	0.0618	–	0.0519	–	0.064	0.0646
K90D	0.0597	–	0.0475	0.0946	–	0.0739	0.0842	–	–	–	–	0.0583	–	–	–	–	–	–	–

Variant	area with substrate ENLAFQS	area with substrate ENLCFQS	area with substrate ENLDFQS	area with substrate ENLFFQS	area with substrate ENLGFQS	area with substrate ENLHFQS	area with substrate ENLKFQS	area with substrate ENLLFQS	area with substrate ENLNFQS	area with substrate ENLPFQS	area with substrate ENLQFQS	area with substrate ENLSFQS	area with substrate ENLVFQS	area with substrate ENLWFQS	area with substrate ENLIFQS	area with substrate ENLMFQS	area with substrate ENLTFQS	area with substrate ENLEFQS	area with substrate ENLRFQS
K90E	0.0819	0.053	–	–	–	–	–	–	–	–	–	–	–	–	0.0885	–	0.0785	–	0.0844
F65K	0.0632	–	–	–	0.0578	–	–	–	0.0669	–	–	0.0604	0.0695	–	–	–	–	0.116	0.0658
F95P	0.0583	–	0.0596	0.0536	–	0.0367	0.0547	0.0488	0.0614	–	–	0.0349	–	0.0547	–	–	–	0.052	0.0559
F95E	0.0444	–	0.0449	0.0913	–	0.0464	0.0461	0.0462	0.0436	0.0653	0.0486	0.0465	–	0.0474	0.0554	–	0.0636	0.0525	–
T72M	0.0821	–	0.0884	0.0839	–	0.0526	–	0.0502	0.0456	–	–	0.0709	–	0.0783	0.0253	–	–	–	–
P96D	0.0799	0.0537	–	0.0758	–	0.0777	0.0652	0.0773	0.0618	–	–	0.0411	–	0.0763	0.111	0.0754	–	0.0581	–
F92S	0.0799	0.0526	–	0.0478	0.046	–	0.0629	–	0.067	0.0628	0.0828	–	–	0.0494	0.054	–	–	0.0626	0.0832
F92M	0.0572	0.07	0.0545	–	–	–	–	–	0.0749	0.0666	0.073	–	0.106	–	0.103	0.0557	0.105	0.0669	–
F92W	0.061	0.0833	–	0.0737	–	–	0.0872	0.0804	0.0669	–	–	0.0823	–	0.0733	–	0.0927	–	0.0748	–
R102S	0.0521	0.0486	0.0535	–	0.0622	0.0525	–	0.0487	0.0406	0.0419	–	–	–	0.0375	0.0401	–	–	0.048	0.0589
R102V	0.0517	–	0.0402	0.0579	–	0.0627	0.041	–	0.0741	0.0558	–	0.0544	–	–	–	0.0613	–	0.0413	0.0481
R102L	0.0577	0.0536	0.0492	0.0481	–	0.0482	0.0464	0.0378	0.0563	0.0502	–	0.0169	–	–	–	0.0483	–	0.0272	0.0621
H62P	0.0526	–	0.0558	0.0838	–	0.0583	0.0635	–	0.0551	–	0.0556	–	–	0.0586	–	–	–	0.0597	–
H62Q	0.0624	–	–	0.0494	0.0618	0.0614	–	0.081	0.0731	–	–	0.0627	–	–	–	–	–	0.0786	0.0378
H62G	0.0732	0.0725	0.0673	0.0734	0.0797	0.0706	0.0457	0.0811	0.0731	0.0733	–	0.0759	0.106	–	0.0827	–	0.0609	0.0566	–

Reference: the supplement of paper PMC12217912
